We go through seven molecules from paper PMC9416004, “A Versatile Class of 1,4,4-Trisubstituted Piperidines Block Coronavirus Replication In Vitro” (Pharmaceuticals, 2022).

For this experiment, the target named is SARS-CoV-2 RdRp (nsp12 in complex with nsp7 and nsp8) (Severe acute respiratory syndrome coronavirus 2, UniProt P0DTD1). Particulars: highest concentration tested: 100 µM.
Consider `COC(=O)C[C@H](NC(=O)OC(C)(C)C)C(=O)N(Cc1ccccc1)C1(C(=O)NCc2ccccc2)CCN(Cc2ccccc2)CC1` [Compound 1], for which the “inhibition of RNA synthesis by the RdRp” value is recorded as “did not detect any significant inhibition”.

For `COC(=O)C[C@H](NC(=O)OCc1ccccc1)C(=O)N(Cc1ccccc1)C1(C(=O)NCc2ccccc2)CCN(Cc2ccccc2)CC1` [Compound 33], the “inhibition of RNA synthesis by the RdRp” value is “did not detect any significant inhibition”.

On to `COC(=O)C[C@H](NC(=O)OCc1ccccc1)C(=O)N(Cc1ccc(F)cc1)C1(C(=O)NCc2ccccc2)CCN(Cc2ccccc2)CC1` [Compound 34], for which the “inhibition of RNA synthesis by the RdRp” value is “did not detect any significant inhibition”.

On to `CC(C)(C)OC(=O)N[C@@H](Cc1ccccc1)C(=O)N(Cc1ccccc1)C1(C(=O)NCc2ccccc2)CCN(Cc2ccccc2)CC1` [Compound 46], for which the “inhibition of RNA synthesis by the RdRp” value is listed as “did not detect any significant inhibition”.

Turning to `Cc1ccc(CC(NC(=O)OC(C)(C)C)C(=O)N(Cc2ccccc2)C2(C(=O)NCc3ccccc3)CCN(Cc3ccccc3)CC2)cc1` (stereo not shown) [Compound 52, Tert-butyl(1-(benzyl(1-benzyl-4-benzylcarbamoylpiperidin-4-yl)amino)-1-oxo-3-(p-tolyl)propan-2-yl)carbamate], the “inhibition of RNA synthesis by the RdRp” value was “did not detect any significant inhibition”.

Consider `CC(C)(C)OC(=O)NC(Cc1ccccc1)C(=O)N(Cc1ccccc1)C1(C(=O)NCc2ccccc2)CCN(Cc2ccc(F)cc2)CC1` (stereo not shown) [Compound 60, Tert-butyl(1-(benzyl(4-benzylcarbamoyl-1-(4-fluorobenzyl)piperidin-4-yl)amino)-1-oxo-3-phenylpropan-2-yl)carbamate], for which the “inhibition of RNA synthesis by the RdRp” value is listed as “did not detect any significant inhibition”.

`CC(C)(C)OC(=O)NC(Cc1ccccc1)C(=O)N(Cc1ccccc1)C1(C(=O)NCc2ccccc2)CCN(Cc2ccc([N+](=O)[O-])cc2)CC1` (stereo not shown) [Compound 63, Tert-butyl(1-(benzyl(4-benzylcarbamoyl-1-(4-nitrobenzyl)piperidin-4-yl)amino)-1-oxo-3-phenylpropan-2-yl)carbamate]: the “inhibition of RNA synthesis by the RdRp” value is reported as “did not detect any significant inhibition”.
